According to patent US9763922B2 (priority 2014, dated 2017):

Experiments:
MYC = experiment: cells; conditions: Homo sapiens, MV4-11, 4 h, read-out: Myc IC50 (μM)
BRD4 BD1 = BRD4 BD1 (Homo sapiens (Human), UniProt O60885); conditions: read-out: BRD4 Alpha IC50

Structure (SMILES) | IC50 (MYC) [µM] | IC50 (BRD4 BD1) [µM]
CC(=O)N1CCc2c(c(Nc3ccc(-c4ccncc4)cc3)nn2CC2CC2)C1 [Example 93, 1-[3-[6-(1-methylpyrazol-4-yl)-3,4-dihydro-2H-quinoxalin-1-yl]-1-[(3S)-tetrahydrofuran-3-yl]-6,7-dihydro-4H-pyrazolo[4,3-c]pyridin-5-yl]ethanone] | 0.36 | 4.33
CC(=O)N1CCc2c(c(Nc3ccc(-c4cnn(C(F)F)c4)cc3)nn2C)C1 [Example 114, (S, S)-1-[3-[3-methyl-6-(1-methylpyrazol-4-yl)-3,4-dihydro-2H-quinolin-1-yl]-1-tetrahydrofuran-3-yl-6,7-dihydro-4H-pyrazolo[4,3-c]pyridin-5-yl]ethanone] | 1.2 | 8.16
CNC(=O)N1CCc2c(c(Nc3ccc(-c4cnn(C)c4C)cc3F)nn2C2CCOCC2)C1 [Example 267, (S)-3-[7-cyano-3,4-dimethyl-6-(1-methylpyrazol-4-yl)-2,3-dihydroquinoxalin-1-yl]-N-methyl-1-tetrahydropyran-4-yl-6,7-dihydro-4H-pyrazolo[4,3-c]pyridine-5-carboxamide] | 0.6 | > 20
CC(=O)N1CCc2c(c(Nc3ccc(-c4cc[nH]n4)cc3)nn2C)C1 [Example 169, 1-[1-methyl-3-[5-(1-methylpyrazol-4-yl)indolin-1-yl]-6,7-dihydro-4H-pyrazolo[4,3-c]pyridin-5-yl]ethanone] | 1.05 | 11.7
CNC(=O)N1CCc2c(c(Nc3cc(C(F)F)c(-c4cnn(C)c4)cc3F)nn2[C@H]2CCOC2)C1 [Example 261, N-methyl-3-[6-(1-methylpyrazol-4-yl)-7-methylsulfonyl-3,4-dihydro-2H-quinolin-1-yl]-1-tetrahydropyran-4-yl-6,7-dihydro-4H-pyrazolo[4,3-c]pyridine-5-carboxamide] | 0.07 | 14.5
CC(=O)N1CCc2c(c(Nc3cc(-c4cnn(C)c4)cc(C(F)(F)F)c3)nn2C2CCOC2)C1 (stereo not drawn) [Example 282, 1-[3-[3-(1-methylpyrazol-4-yl)-5-(trifluoromethyl)anilino]-1-tetrahydrofuran-3-yl-6,7-dihydro-4H-pyrazolo[4,3-c]pyridin-5-yl]ethanone] | 0.11 | 0.76
CC(=O)N1CCc2c(c(Nc3cc(C(F)F)c(-c4cnn(C)c4)cc3F)nn2C2CCOCC2)C1 [Example 242, 1-[3-[7-(difluoromethyl)-6-(1-methylpyrazol-4-yl)-3,4-dihydro-2H-quinolin-1-yl]-1-tetrahydropyran-4-yl-6,7-dihydro-4H-pyrazolo[4,3-c]pyridin-5-yl]propan-1-one] | 0.2 | 2.48
CC(=O)N1CCc2c(c(Nc3cccc(-c4cnn(C)c4)c3)nn2C)C1 [Example 81, 1-(3-(3-(2,2-difluoroethyl)-6-(1-methyl-1H-pyrazol-4-yl)-3,4-dihydroquinolin-1(2H)-yl)-1-((S)-tetrahydrofuran-3-yl)-6,7-dihydro-1H-pyrazolo[4,3-c]pyridin-5(4H)-yl)ethanone] | 0.5 | 5.29
CNC(=O)N1CCc2c(c(Nc3ccc(-c4cnn(C)c4)cc3F)nn2C2CCOCC2)C1 [Example 263, 4-(5-acetyl-1-tetrahydropyran-4-yl-6,7-dihydro-4H-pyrazolo[4,3-c]pyridin-3-yl)-1-methyl-7-(1-methylpyrazol-4-yl)-2,3-dihydroquinoxaline-6-carbonitrile] | 1.88 | > 20
CC(=O)N1CCc2c(c(Nc3cccc(C(F)(F)F)c3)nn2CC2CC2)C1 [Example 223, 1-[3-[N-benzyl-4-(1-methylpyrazol-4-yl)anilino]-1-[(3S)-tetrahydrofuran-3-yl]-6,7-dihydro-4H-pyrazolo[4,3-c]pyridin-5-yl]ethanone] | 0.5 | 5.11
CC(=O)N1CCc2c(c(Nc3cc(-c4cnn(C)c4)cc(F)c3F)nn2C2CCOC2)C1 (stereo not drawn) [Example 287, 1-[3-[2,3-difluoro-5-(1-methylpyrazol-4-yl)anilino]-1-tetrahydrofuran-3-yl-6,7-dihydro-4H-pyrazolo[4,3-c]pyridin-5-yl]ethanone] | 0.67 | 4.56
CC(=O)N1CCc2c(c(Nc3cccc(-c4cnn(C)c4)c3)nn2CC2COC2)C1 [Example 86, 1-[3-[3-(hydroxymethyl)-6-(1-methylpyrazol-4-yl)-3,4-dihydro-2H-quinolin-1-yl]-1-tetrahydrofuran-3-yl-6,7-dihydro-4H-pyrazolo[4,3-c]pyridin-5-yl]ethanone] | 0.44 | 2.72
CCC(=O)N1CCc2c(c(Nc3ccc(-c4cnn(C)c4)c(C(F)F)c3)nn2C2CCOC2)C1 (stereo not drawn) [Example 254, N-methyl-3-[6-(1-methylpyrazol-4-yl)-7-(trifluoromethyl)-3,4-dihydro-2H-quinolin-1-yl]-1-tetrahydropyran-4-yl-6,7-dihydro-4H-pyrazolo[4,3-c]pyridine-5-carboxamide] | 1.15 | 2.52
CC(=O)N1CCc2c(c(Nc3ccc(-c4cn[nH]c4)cc3)nn2C)C1 [Example 185, (R)-1-[3-[5-(1,5-dimethylpyrazol-4-yl)indolin-1-yl]-1-tetrahydrofuran-3-yl-6,7-dihydro-4H-pyrazolo[4,3-c]pyridin-5-yl]ethanone] | 0.86 | 11.4
CC(=O)N1CCc2c(c(Nc3ccc(-c4cn(C)nc4C)cc3F)nn2C2CCOC2)C1 (stereo not drawn) [Example 309, 1-[3-[4-(1,3-dimethylpyrazol-4-yl)-2-fluoro-anilino]-1-tetrahydrofuran-3-yl-6,7-dihydro-4H-pyrazolo[4,3-c]pyridin-5-yl]ethanone] | 0.4 | 3.62
CC(=O)N1CCc2c(c(Nc3ccc(-c4cn(C)nc4C(F)(F)F)cc3)nn2C(C)CO)C1 (stereo not drawn) [Example 276, N-methyl-3-[7-(1-methylpyrazol-4-yl)-6-(trifluoromethyl)-2,3-dihydro-1,4-benzoxazin-4-yl]-1-tetrahydropyran-4-yl-6,7-dihydro-4H-pyrazolo[4,3-c]pyridine-5-carboxamide] | 0.18 | 1.68
CC(=O)N1CCc2c(c(Nc3ccc(-c4oc(C)nc4C)cc3F)nn2C2CCOC2)C1 (stereo not drawn) [Example 249, 3-[7-(difluoromethyl)-6-(2-methoxy-4-pyridyl)-3,4-dihydro-2H-quinolin-1-yl]-N-methyl-1-tetrahydropyran-4-yl-6,7-dihydro-4H-pyrazolo[4,3-c]pyridine-5-carboxamide] | 4.09 | 2.78
CC(=O)N1CCc2c(c(Nc3cccc(C(=O)NC4CC4)c3)nn2CC2CC2)C1 [Example 221, 1-[3-[4-methyl-5-(1-methylpyrazol-4-yl)indolin-1-yl]-1-tetrahydrofuran-3-yl-6,7-dihydro-4H-pyrazolo[4,3-c]pyridin-5-yl]ethanone] | 0.41 | 6.18
CC(=O)N1CCc2c(c(Nc3ccc(-c4cccc(C(C)O)c4)cc3)nn2C)C1 (stereo not drawn) [Example 106, 1-[3-[4-methyl-6-(1-methylpyrazol-4-yl)-3,4-dihydro-2H-quinolin-1-yl]-1-tetrahydrofuran-3-yl-6,7-dihydro-4H-pyrazolo[4,3-c]pyridin-5-yl]ethanone] | 1.09 | 5.04
CC(=O)N1CCc2c(c(Nc3ccc(-c4cnn5c4CCCC5)cc3)nn2C)C1 [Example 152, 3-[7-(difluoromethoxy)-6-(1-methylpyrazol-4-yl)-3,4-dihydro-2H-quinolin-1-yl]-1-tetrahydropyran-4-yl-6,7-dihydro-4H-pyrazolo[4,3-c]pyridine-5-carboxamide] | 0.38 | 3.66
Cn1cc(-c2ccc(Nc3nn(C4CCOCC4)c4c3CN(C(N)=O)CC4)c(F)c2)cn1 [Example 259, N-methyl-3-[6-(1-methylpyrazol-4-yl)-7-vinyl-3,4-dihydro-2H-quinolin-1-yl]-1-tetrahydropyran-4-yl-6,7-dihydro-4H-pyrazolo[4,3-c]pyridine-5-carboxamide] | 4.72 | > 20
CC(=O)N1CCc2c(c(Nc3c(F)ccc(-c4cnn(C)c4)c3F)nn2[C@@H]2CCOC2)C1 [Example 281, (R)-1-[3-[2,6-difluoro-3-(1-methylpyrazol-4-yl)anilino]-1-tetrahydrofuran-3-yl-6,7-dihydro-4H-pyrazolo[4,3-c]pyridin-5-yl]ethanone] | 0.33 | 8.26
CC(=O)N1CCc2c(c(Nc3ccc(-c4cn(C)nc4C#N)cc3F)nn2C2CCOC2)C1 (stereo not drawn) [Example 308, 4-[4-[(5-acetyl-1-tetrahydrofuran-3-yl-6,7-dihydro-4H-pyrazolo[4,3-c]pyridin-3-yl)amino]-3-fluoro-phenyl]-1-methyl-pyrazole-3-carbonitrile] | 0.43 | 4
CC(=O)N1CCc2c(c(Nc3ccc(-c4ccnn4C)cc3)nn2C)C1 [Example 109, 1-[3-[3-methyl-6-(1-methylpyrazol-4-yl)-3,4-dihydro-2H-quinolin-1-yl]-1-(oxetan-3-yl)-6,7-dihydro-4H-pyrazolo[4,3-c]pyridin-5-yl]ethanone] | 1.11 | 7.87
CNC(=O)N1CCc2c(c(Nc3ccc(-c4cnn(C)c4)cc3F)nn2[C@H]2CCOC2)C1 [Example 262, 3-[7-cyano-4-methyl-6-(1-methylpyrazol-4-yl)-2,3-dihydroquinoxalin-1-yl]-N-methyl-1-tetrahydropyran-4-yl-6,7-dihydro-4H-pyrazolo[4,3-c]pyridine-5-carboxamide] | 1.21 | > 20
CCC(=O)N1CCc2c(c(Nc3cc(C(F)F)c(-c4cnn(C)c4)cc3F)nn2C2CCOCC2)C1 [Example 252, 3-[6-(6-acetamido-3-pyridyl)-7-(difluoromethyl)-3,4-dihydro-2H-quinolin-1-yl]-N-methyl-1-tetrahydropyran-4-yl-6,7-dihydro-4H-pyrazolo[4,3-c]pyridine-5-carboxamide] | 0.18 | 4.81
CC(=O)N1CCc2c(c(Nc3ccc(-c4cn[nH]c4)cc3)nn2CC2CC2)C1 [Example 98, 1-(3-((4-(1H-pyrazol-4-yl)phenyl)amino)-1-(cyclopropylmethyl)-6,7-dihydro-1H-pyrazolo[4,3-c]pyridin-5(4H)-yl)ethanone] | 0.2 | 4.42
